# Test results reported in the supplement of paper PMC8728848.
# The other results are listed elsewhere or left out.
# B1: Sialidase (Vibrio cholerae), P37060 (protein)
# chain: GAMALFDYNATGDTEFDSPAKQGWMQDNTNNGSGVLTNADGMPAWLVQGIGGRAQWTYSLSTNQHAQASSFGWRMTTEMKVLSGGMITNYYANGTQRVLPIISLDSSGNLVVEFEGQTGRTVLATGTAATEYHKFELVFLPGSNPSASFYFDGKLIRDNIQPTASKQNMIVWGNGSSNTDGVAAYRDIKFEIQGDALNGSMALFDYNATGDTEFDSPAKQGWMQDNTNNGSGVLTNADGMPAWLVQGIGGRAQWTYSLSTNQHAQASSFGWRMTTEMKVLSGGMITNYYANGTQRVLPIISLDSSGNLVVEFEGQTGRTVLATGTAATEYHKFELVFLPGSNPSASFYFDGKLIRDNIQPTASKQNMIVWGNGSSNTDGVAAYRDIKFEIQGDLQALGMALFDYNATGDTEFDSPAKQGWMQDNTNNGSGVLTNADGMPAWLVQGIGGRAQWTYSLSTNQHAQASSFGWRMTTEMKVLSGGMITNYYANGTQRVLPIISLDSSGNLVVEFEGQTGRTVLATGTAATEYHKFELVFLPGSNPSASFYFDGKLIRDNIQPTASKQNMIVWGNGSSNTDGVAAYRDIKFEIQGD
# Columns and labels:
# Experiment in all cases: glycan array binding signal (z-score within array); higher = stronger binding
# Conditions in all cases: glycan notation: IUPAC condensed, linker removed
# Fuc(a1-2)Gal = target: Fuc(a1-2)Gal
# Summary of the method: (§1)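 The Consortium for Functional Glycomics database supplied 3228 glycan arrays, of which those lacking an available protein sequence were dropped. The binding signal, a within-array Z-score, was averaged across arrays of the same protein sequence and across linkers. Negative scores can be read as non-binding.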
# Fuc(a1-2)Gal(b1-3)GalNAc = target: Fuc(a1-2)Gal(b1-3)GalNAc
# Summary of the method: as §1
# [1] = target: Fuc(a1-2)Gal(b1-3)GalNAc(b1-3)Gal
# Summary of the method: as §1
# [2] = target: Fuc(a1-2)Gal(b1-3)GalNAc(b1-3)Gal(a1-4)Gal(b1-4)Glc
# Summary of the method: as §1
# [3] = target: Fuc(a1-2)Gal(b1-3)GalNAc(b1-4)[Neu5Ac(a2-3)]Gal(b1-4)Glc
# Summary of the method: as §1
# Fuc(a1-2)Gal(b1-3)GlcNAc = target: Fuc(a1-2)Gal(b1-3)GlcNAc
# Summary of the method: as §1
# [4] = target: Fuc(a1-2)Gal(b1-3)GlcNAc(b1-2)Man(a1-3)[Fuc(a1-2)Gal(b1-3)GlcNAc(b1-2)Man(a1-6)]Man(b1-4)GlcNAc(b1-4)GlcNAc
# Summary of the method: as §1
# [5] = target: Fuc(a1-2)Gal(b1-3)GlcNAc(b1-3)Gal(b1-4)Glc
# Summary of the method: as §1
# [6] = target: Fuc(a1-2)Gal(b1-3)GlcNAc(b1-3)[Gal(b1-4)[Fuc(a1-3)]GlcNAc(b1-6)]Gal(b1-4)Glc
# Summary of the method: as §1
# [7] = target: Fuc(a1-2)Gal(b1-3)[Fuc(a1-4)]GlcNAc
# Summary of the method: as §1
# [8] = target: Fuc(a1-2)Gal(b1-3)[Fuc(a1-4)]GlcNAc(b1-2)Man(a1-3)[Fuc(a1-2)Gal(b1-3)[Fuc(a1-4)]GlcNAc(b1-2)Man(a1-6)]Man(b1-4)GlcNAc(b1-4)GlcNAc
# Summary of the method: as §1
# Fuc(a1-2)Gal(b1-4)Glc = target: Fuc(a1-2)Gal(b1-4)Glc
# Summary of the method: as §1
# Fuc(a1-2)Gal(b1-4)Glc6S = target: Fuc(a1-2)Gal(b1-4)Glc6S
# Summary of the method: as §1
# Fuc(a1-2)Gal(b1-4)GlcNAc = target: Fuc(a1-2)Gal(b1-4)GlcNAc
# Summary of the method: as §1
# [9] = target: Fuc(a1-2)Gal(b1-4)GlcNAc(b1-2)Man(a1-3)[Fuc(a1-2)Gal(b1-4)GlcNAc(b1-2)Man(a1-6)]Man(b1-4)GlcNAc(b1-4)GlcNAc
# Summary of the method: as §1
# [10] = target: Fuc(a1-2)Gal(b1-4)GlcNAc(b1-3)Gal(b1-4)GlcNAc
# Summary of the method: as §1
# [11] = target: Fuc(a1-2)Gal(b1-4)GlcNAc(b1-3)Gal(b1-4)GlcNAc(b1-3)Gal(b1-4)GlcNAc
# Summary of the method: as §1
# [12] = target: Fuc(a1-2)Gal(b1-4)GlcNAc6S
# Summary of the method: as §1
# [13] = target: Fuc(a1-2)Gal(b1-4)[Fuc(a1-3)]GlcNAc
# Summary of the method: as §1
# [14] = target: Fuc(a1-2)Gal(b1-4)[Fuc(a1-3)]GlcNAc(b1-2)Man(a1-3)[Fuc(a1-2)Gal(b1-4)[Fuc(a1-3)]GlcNAc(b1-2)Man(a1-6)]Man(b1-4)GlcNAc(b1-4)GlcNAc
# Summary of the method: as §1
# [15] = target: Fuc(a1-2)Gal(b1-4)[Fuc(a1-3)]GlcNAc(b1-3)Gal(b1-4)[Fuc(a1-3)]GlcNAc
# Summary of the method: as §1
# [16] = target: Fuc(a1-2)Gal(b1-4)[Fuc(a1-3)]GlcNAc(b1-3)Gal(b1-4)[Fuc(a1-3)]GlcNAc(b1-3)Gal(b1-4)[Fuc(a1-3)]GlcNAc
# Summary of the method: as §1
# Fuc(a1-2)Gal6S(b1-4)Glc = target: Fuc(a1-2)Gal6S(b1-4)Glc
# Summary of the method: as §1
# [17] = target: Fuc(a1-2)Gal6S(b1-4)Glc6S
# Summary of the method: as §1
# [18] = target: Fuc(a1-2)Gal6S(b1-4)GlcNAc
# Summary of the method: as §1
# Fuc(a1-2)[Gal(a1-3)]Gal = target: Fuc(a1-2)[Gal(a1-3)]Gal
# Summary of the method: as §1
# [19] = target: Fuc(a1-2)[Gal(a1-3)]Gal(b1-3)GlcNAc
# Summary of the method: as §1
# [20] = target: Fuc(a1-2)[Gal(a1-3)]Gal(b1-3)GlcNAc(b1-2)Man(a1-3)[Fuc(a1-2)[Gal(a1-3)]Gal(b1-3)GlcNAc(b1-2)Man(a1-6)]Man(b1-4)GlcNAc(b1-4)GlcNAc
# Summary of the method: as §1
# [21] = target: Fuc(a1-2)[Gal(a1-3)]Gal(b1-4)Glc
# Summary of the method: as §1
# [22] = target: Fuc(a1-2)[Gal(a1-3)]Gal(b1-4)GlcNAc
# Summary of the method: as §1
binder,measurement,setting,value
B1,glycan array binding signal (z-score),Fuc(a1-2)Gal,-0.553
same,glycan array binding signal (z-score),Fuc(a1-2)Gal(b1-3)GalNAc,-0.229
same,glycan array binding signal (z-score),[1],-0.351
same,glycan array binding signal (z-score),[2],-0.283
same,glycan array binding signal (z-score),[3],0.139
same,glycan array binding signal (z-score),Fuc(a1-2)Gal(b1-3)GlcNAc,-0.596
same,glycan array binding signal (z-score),[4],0.26
same,glycan array binding signal (z-score),[5],-0.617
same,glycan array binding signal (z-score),[6],-0.38
same,glycan array binding signal (z-score),[7],-0.339
same,glycan array binding signal (z-score),[8],-0.697
same,glycan array binding signal (z-score),Fuc(a1-2)Gal(b1-4)Glc,-0.664
same,glycan array binding signal (z-score),Fuc(a1-2)Gal(b1-4)Glc6S,-0.128
same,glycan array binding signal (z-score),Fuc(a1-2)Gal(b1-4)GlcNAc,-0.237
same,glycan array binding signal (z-score),[9],-0.656
same,glycan array binding signal (z-score),[10],-0.541
same,glycan array binding signal (z-score),[11],0.415
same,glycan array binding signal (z-score),[12],-0.664
same,glycan array binding signal (z-score),[13],-0.432
same,glycan array binding signal (z-score),[14],-0.085
same,glycan array binding signal (z-score),[15],-0.651
same,glycan array binding signal (z-score),[16],-0.337
same,glycan array binding signal (z-score),Fuc(a1-2)Gal6S(b1-4)Glc,-0.252
same,glycan array binding signal (z-score),[17],1.06
same,glycan array binding signal (z-score),[18],0.313
same,glycan array binding signal (z-score),Fuc(a1-2)[Gal(a1-3)]Gal,-0.603
same,glycan array binding signal (z-score),[19],-0.518
same,glycan array binding signal (z-score),[20],-0.655
same,glycan array binding signal (z-score),[21],-0.115
same,glycan array binding signal (z-score),[22],-0.503
